Experimental data taken from the supplement of paper PMC12217912.
Some of the results follow. Sequences were assembled here from the parent chain. Values near 0.05 are background.

B1: TEV protease; numbered along this chain (parent)
chain: MGESLFKGPRDYNPISSSICHLTNESDGHTTSLYGIGFGPFIITNKHLFRRNNGTLVVQSLHGVFKVKDTTTLQQHLVDGRDMIIIRMPKDFPPFPQKLKFREPQREERICLVTTNFQTKSMSSMVSDTSCTFPSGDGIFWKHWIQTKDGQCGSPLVSTRDGFIVGIHSASNFTNTNNYFTSVPKNFMELLTNQEAQQWVSGWRLNADSVLWGGHKVFMVKPEEPFQPVKEATQL

Variants of: B1
Assay: raw area under fraction-flipped curve 0-4 h after induction (AUC4h, not background-subtracted), DNA-recorder readout of cleavage of the substrate (dimensionless); higher = more cleavage of the substrate by the protease variant
Details: temperature: 34 °C; time window: 0-4 h after rhamnose induction
Procedure: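 In vivo DNA recorder in E. coli TOP10(DE3) ΔrhaA at 34 °C. Each TEVp single-site mutant (parent TEVp 0) is paired with a single-site variant of the 7-mer TEVs (canonical ENLYFQ|S). The substrate sits between flexible linkers in a Bxb1-sfGFP-TEVs-SsrA fusion, so cleavage stabilises Bxb1 and speeds flipping of a recombination array, read by NGS. The value is the raw area under the fraction-flipped curve over 0-4 h after rhamnose induction (AUC4h), with ≥20 reads per time point. It is not background-subtracted; inactive controls average about 0.047.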
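Further: Bxb1 expression induced with 0.2% (w/v) L-rhamnose at OD600 near 0.5, cultures sampled hourly, flipped fraction per protease–substrate barcode pair counted by paired-end Illumina sequencing.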

| Variant | area with substrate ENLYAQS | area with substrate ENLYDQS | area with substrate ENLYEQS | area with substrate ENLYGQS | area with substrate ENLYHQS | area with substrate ENLYIQS | area with substrate ENLYLQS | area with substrate ENLYMQS | area with substrate ENLYNQS | area with substrate ENLYPQS | area with substrate ENLYQQS | area with substrate ENLYRQS | area with substrate ENLYSQS | area with substrate ENLYTQS | area with substrate ENLYVQS | area with substrate ENLYWQS | area with substrate ENLYYQS | area with substrate ENLYKQS | area with substrate ENLYCQS |
| --- | --- | --- | --- | --- | --- | --- | --- | --- | --- | --- | --- | --- | --- | --- | --- | --- | --- | --- | --- |
| S169Q | 0.0784 | 0.0619 | 0.055 | 0.0626 | 0.0559 | 0.0504 | 0.0642 | 0.0646 | 0.0652 | 0.0491 | 0.0614 | 0.0635 | 0.0628 | 0.0624 | 0.0679 | 0.0615 | 0.0475 | – | – |
| N193W | 0.0671 | 0.0609 | 0.0637 | – | 0.04 | 0.0912 | – | – | – | – | – | 0.0494 | – | – | 0.0962 | – | – | 0.0614 | – |
| S16P | 0.0625 | – | 0.0645 | – | 0.07 | 0.143 | 0.101 | 0.0868 | 0.0736 | 0.0707 | 0.0673 | 0.057 | – | 0.081 | 0.0969 | – | 0.0656 | 0.0561 | 0.0861 |
| S158W | 0.049 | 0.0483 | 0.0502 | 0.0484 | 0.0574 | 0.0543 | 0.0437 | 0.0608 | 0.0466 | 0.0473 | 0.0437 | 0.0511 | 0.0496 | 0.0572 | 0.0577 | 0.0556 | – | 0.0539 | 0.0441 |
| S121R | 0.0524 | 0.0653 | 0.0638 | 0.0734 | 0.0626 | 0.119 | 0.0948 | 0.0885 | 0.0755 | 0.0858 | – | 0.0756 | 0.0784 | – | – | – | 0.0523 | 0.0545 | – |
| R87P | 0.0666 | 0.0658 | 0.0572 | – | 0.0518 | – | – | – | 0.0548 | 0.0594 | 0.0591 | 0.0506 | 0.0615 | 0.0477 | – | – | – | 0.073 | – |
| G138C | 0.0722 | – | – | – | 0.0893 | – | – | – | 0.0543 | – | – | – | – | – | – | – | – | 0.0582 | – |
| E195G | 0.073 | 0.0705 | 0.0652 | – | – | 0.116 | 0.0903 | 0.0711 | 0.0697 | – | 0.069 | 0.0659 | 0.0875 | – | 0.103 | 0.0834 | 0.0765 | 0.0404 | – |
| W203K | 0.0787 | 0.0658 | 0.0634 | 0.0533 | 0.061 | – | – | 0.0584 | – | 0.0603 | – | 0.0574 | 0.0581 | 0.0609 | 0.0597 | 0.0612 | 0.0654 | 0.0662 | 0.0637 |
| M83S | 0.0636 | – | 0.0403 | 0.0304 | 0.0598 | – | – | 0.068 | 0.0564 | – | – | 0.0556 | – | – | 0.0742 | – | 0.0478 | – | – |
| M83Q | 0.084 | 0.0776 | 0.0588 | 0.0532 | 0.0387 | 0.0788 | – | 0.0643 | 0.0595 | – | – | 0.0565 | 0.0446 | – | 0.019 | 0.0566 | – | 0.0613 | 0.061 |
| M83P | 0.0389 | 0.0537 | 0.0545 | 0.0666 | – | – | – | – | 0.0427 | 0.0462 | 0.0594 | – | 0.027 | – | 0.0657 | – | – | – | – |
| S182T | 0.0786 | – | 0.0524 | – | – | – | – | – | 0.0813 | – | – | – | – | – | – | – | – | – | – |
| S182G | 0.0852 | 0.05 | – | 0.0692 | – | – | – | – | – | 0.0823 | – | – | – | – | 0.109 | – | – | 0.118 | 0.0972 |
| I139L | 0.0787 | 0.0602 | 0.0593 | 0.0484 | 0.0718 | – | 0.0778 | 0.0772 | 0.0534 | 0.0654 | 0.0552 | 0.0617 | 0.0792 | 0.0924 | 0.0666 | 0.0877 | 0.0641 | 0.0511 | 0.0674 |
| Q227Y | 0.0699 | 0.0711 | 0.0618 | 0.0653 | 0.0708 | 0.0726 | 0.0769 | 0.0683 | 0.067 | 0.0632 | – | 0.059 | 0.06 | – | – | 0.0721 | – | 0.0288 | 0.0768 |
| S171P | 0.0472 | 0.0617 | – | 0.058 | 0.062 | 0.0572 | 0.0524 | 0.0489 | 0.0623 | 0.0433 | 0.0622 | 0.0501 | 0.0623 | – | 0.0609 | 0.0459 | 0.0572 | 0.0659 | – |
| V78M | 0.079 | 0.0567 | 0.088 | 0.074 | 0.07 | 0.102 | – | 0.0962 | 0.0627 | 0.0801 | 0.0593 | 0.0766 | 0.0666 | 0.0591 | 0.136 | 0.073 | 0.0429 | 0.0524 | – |
| N206K | 0.0765 | – | – | – | – | – | – | 0.0708 | – | – | – | – | – | 0.0613 | – | 0.066 | 0.0857 | 0.0385 | – |
| P94M | 0.0595 | 0.0565 | 0.0694 | 0.0664 | 0.0818 | 0.101 | – | 0.0562 | 0.0522 | 0.101 | 0.0614 | – | 0.0677 | 0.0772 | – | 0.0767 | – | – | – |
| D91L | 0.0621 | 0.0732 | – | 0.0725 | 0.0619 | – | 0.0804 | 0.108 | 0.0691 | 0.0813 | – | 0.0634 | – | – | – | – | – | 0.0388 | 0.117 |
| K142C | 0.0746 | – | 0.0649 | 0.0628 | – | 0.0918 | – | 0.079 | 0.0933 | 0.0773 | – | 0.0626 | 0.0668 | 0.123 | – | 0.0611 | 0.065 | 0.0587 | – |
| V126L | 0.0599 | 0.0622 | 0.0635 | – | 0.059 | 0.127 | – | – | 0.0647 | – | – | – | 0.08 | – | 0.0561 | – | – | – | 0.0899 |
| E231P | 0.0559 | – | 0.0445 | – | – | – | – | – | 0.0943 | – | 0.0744 | – | 0.0634 | – | 0.103 | – | – | – | – |
| I164R | 0.0522 | 0.0466 | 0.0541 | – | 0.0562 | 0.0534 | 0.0571 | 0.0547 | 0.0546 | 0.0661 | 0.052 | 0.0591 | – | 0.0609 | 0.0413 | 0.0794 | 0.0484 | 0.0433 | – |
| F92P | 0.053 | 0.0544 | 0.0558 | 0.0588 | 0.0608 | 0.0803 | 0.0543 | 0.0655 | 0.156 | 0.0532 | 0.0734 | – | 0.0614 | – | – | 0.0519 | – | 0.0597 | 0.0455 |
| A207L | 0.0591 | 0.0653 | 0.0545 | 0.0696 | 0.0657 | – | 0.0862 | – | – | – | – | 0.0402 | – | – | 0.0679 | – | – | 0.0708 | – |
| M122C | 0.0593 | 0.0616 | 0.0708 | 0.0682 | 0.0734 | 0.141 | – | 0.096 | 0.051 | 0.0694 | 0.0592 | 0.064 | – | – | 0.115 | 0.0824 | – | 0.0547 | – |
| T119P | 0.0605 | 0.0711 | 0.0689 | – | 0.0674 | 0.132 | – | 0.0932 | – | 0.0985 | – | – | – | 0.0679 | – | – | – | – | – |
